In the supplement of paper PMC10369915:
This is one part of the list. Cut-off read from the data, not from the text of the source: active = 3.2 or more and inactive = the rest. The signal is at background level for most entries.

Tests used:
Experiment in all cases: enrichment score (SH2-bound / input frequency) (ratio); bacterial display of known human phosphotyrosine sites (pTyr-Var adds point mutants) read by sequencing; higher = stronger binding; tyrosines were phosphorylated by kinases first
Settings in all cases: peptide library: pTyr-Var
[1] = molecular target: SHP2 C-SH2 domain E139D
[2] = molecular target: SHP2 C-SH2 domain wild-type
[3] = molecular target: SHP2 N-SH2 domain L43F
[4] = molecular target: SHP2 N-SH2 domain T42A
[5] = molecular target: SHP2 N-SH2 domain T52S
[6] = molecular target: SHP2 N-SH2 domain wild-type
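Note: displayed peptides selected on beads carrying the immobilized SH2 domain, with library peptides lacking any tyrosine serving as negative controls.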

Binder	enrichment score [1]	enrichment score [2]	enrichment score [3]	enrichment score [4]	enrichment score [5]	enrichment score [6]
LGLTVYADCLA [ABCA4_Y2063]	inactive: 0.965	inactive: 1.04	inactive: 0.922	inactive: 1.26	inactive: 0.879	inactive: 1.2
GEIQEYGAPSD [ABCC1_Y1508]	inactive: 0.476	inactive: 0.479	inactive: 0.475	inactive: 0.433	inactive: 0.459	inactive: 0.652
ADEDIYGVLPA [LYNtide_2014]	inactive: 0.599	inactive: 0.879	inactive: 0.564	inactive: 0.547	inactive: 0.531	inactive: 0.788
NGPDVYVLPVT [AATK_Y93_L97V]	inactive: 0.758	inactive: 0.619	inactive: 0.73	inactive: 0.624	inactive: 0.646	inactive: 0.675
YETVKYINNER [ABCB7_Y345_F346I]	inactive: 0.816	inactive: 1.26	inactive: 0.702	inactive: 2.67	inactive: 0.798	inactive: 1.08
YETVKYFNNER [ABCB7_Y345]	inactive: 0.822	inactive: 0.939	inactive: 0.85	inactive: 1.22	inactive: 0.964	inactive: 0.727
NGPDVYVLPLT [AATK_Y93]	inactive: 0.784	inactive: 0.774	inactive: 0.773	inactive: 0.634	inactive: 0.627	inactive: 0.68
AEEPIYIIVPA [BMXtide_2014]	inactive: 1.64	inactive: 1.64	inactive: 1.46	inactive: 1.56	inactive: 1.88	inactive: 1.44
GGEAIYAAPFA [Abl_opt_1995]	inactive: 0.867	inactive: 0.717	inactive: 0.687	inactive: 0.718	inactive: 0.639	inactive: 0.715
AHPIIYEIIEA [PYKtide_E_2014]	inactive: 1.74	inactive: 1.52	inactive: 2.02	inactive: 1.71	inactive: 1.72	inactive: 2.19
ATVQNYLPKCI [A2M_Y817_L815Q]	inactive: 0.984	inactive: 0.815	inactive: 0.74	inactive: 0.607	inactive: 0.704	inactive: 0.934
ARDVIYIIIPA [FRKtide_2014]	active: 6.7	active: 5.36	active: 5.79	active: 5.37	active: 6.01	active: 5.23
FETVKYFNNER [ABCB7_Y345_YF]	inactive: 0.826	inactive: 0.824	inactive: 0.887	inactive: 0.898	inactive: 0.761	inactive: 0.912
ADEQIYWQIAA [CSKtide_2014]	inactive: 0.766	inactive: 0.836	inactive: 0.712	inactive: 0.734	inactive: 0.701	inactive: 0.992
LRVGFYESDVM [A2M_Y708]	inactive: 1.56	inactive: 1.39	inactive: 1.89	inactive: 1.8	inactive: 2.1	inactive: 1.74
AEEEIYGEFEA [Src_opt_1995]	inactive: 0.661	inactive: 1.19	inactive: 0.852	inactive: 0.89	inactive: 0.714	inactive: 1.15
ADPQEYIPLPA [JAKtide_2014]	inactive: 0.59	inactive: 0.619	inactive: 0.669	inactive: 0.536	inactive: 0.644	inactive: 0.716
EQQNMYRLKVL [ABCC6_Y372]	inactive: 0.694	inactive: 0.684	inactive: 0.693	inactive: 0.666	inactive: 0.694	inactive: 0.778
LALTVYADCLA [ABCA4_Y2063_G2059A]	inactive: 0.973	inactive: 1.16	inactive: 0.989	inactive: 1.6	inactive: 0.966	inactive: 1.33
